This is an account of results in article PMC4336329 (PLoS ONE, 2015).

Structures are written as SMILES. About 14,000 (4.5%) of roughly 310,000 compounds showed an effect of 50% or more. The effect is printed as a negative number. Some of the results follow.
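Note: peak tail current of the secondary pulse compared with the same well before compound.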

For this assay, the target named is human ether-à-go-go-related gene (hERG) potassium channel (human, UniProt Q12809). The assay can be described thus: primary screen, population patch clamp on CHO cells stably expressing hERG.
human ether-à-go-go-related gene (hERG) potassium channel, sequence (Q12809 whole entry, looked up): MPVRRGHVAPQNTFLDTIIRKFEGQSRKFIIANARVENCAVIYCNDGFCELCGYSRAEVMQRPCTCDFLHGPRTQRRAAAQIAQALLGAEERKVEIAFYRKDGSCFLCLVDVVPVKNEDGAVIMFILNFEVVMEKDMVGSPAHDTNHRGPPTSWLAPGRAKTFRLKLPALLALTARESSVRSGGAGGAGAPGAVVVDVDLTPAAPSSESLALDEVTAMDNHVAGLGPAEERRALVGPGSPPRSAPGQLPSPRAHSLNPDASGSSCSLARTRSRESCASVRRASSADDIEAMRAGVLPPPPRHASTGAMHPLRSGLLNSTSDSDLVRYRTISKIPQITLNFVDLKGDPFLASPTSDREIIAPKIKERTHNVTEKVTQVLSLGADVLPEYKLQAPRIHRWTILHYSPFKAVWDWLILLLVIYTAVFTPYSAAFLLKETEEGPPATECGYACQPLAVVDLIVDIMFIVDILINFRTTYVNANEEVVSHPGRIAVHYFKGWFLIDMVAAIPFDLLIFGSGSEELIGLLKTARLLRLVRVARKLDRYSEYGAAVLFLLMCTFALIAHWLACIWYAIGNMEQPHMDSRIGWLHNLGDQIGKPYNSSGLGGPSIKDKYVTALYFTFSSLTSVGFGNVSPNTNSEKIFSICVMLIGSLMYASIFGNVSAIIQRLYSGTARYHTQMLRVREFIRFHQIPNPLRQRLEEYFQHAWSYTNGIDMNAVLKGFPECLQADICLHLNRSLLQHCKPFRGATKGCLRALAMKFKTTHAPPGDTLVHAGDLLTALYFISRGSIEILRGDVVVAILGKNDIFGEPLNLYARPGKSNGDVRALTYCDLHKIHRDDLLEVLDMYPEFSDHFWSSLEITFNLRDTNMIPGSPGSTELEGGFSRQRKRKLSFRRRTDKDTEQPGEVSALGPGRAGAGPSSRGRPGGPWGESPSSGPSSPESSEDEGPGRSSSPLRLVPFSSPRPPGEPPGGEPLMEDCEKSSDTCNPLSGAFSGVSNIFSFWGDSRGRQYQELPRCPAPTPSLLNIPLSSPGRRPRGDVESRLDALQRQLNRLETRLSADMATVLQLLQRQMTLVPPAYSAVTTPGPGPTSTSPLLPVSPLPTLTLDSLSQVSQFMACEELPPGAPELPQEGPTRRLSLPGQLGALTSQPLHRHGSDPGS
`CCOc1ccccc1/C=C(/C#N)C(N)=O`: the “hERG current change (%, negative = inhibition) at 10uM” value stood at 7.14%.

For the compound `C/C=C1\COC(C(=O)NCc2ccccc2)(C(F)(F)F)C=C1C=C(C)C` (stereo not drawn), the “hERG current change (%, negative = inhibition) at 10uM” value is -1.28%.

As to `Cc1cccc(-n2cnc(C(=O)N/N=C/c3ccccc3)c2)n1`, the “hERG current change (%, negative = inhibition) at 10uM” value was 1.48%.

Turning to `Cc1cc(C(=O)O)ccc1-c1ccc(/C=C2\SC(=O)N(CC(=O)Nc3ccc4c(c3)OCO4)C2=O)o1`, the “hERG current change (%, negative = inhibition) at 10uM” value is 18%.

Turning to `CSc1ccc(/C=N\Nc2nncn2N)cc1.Cl`, the “hERG current change (%, negative = inhibition) at 10uM” value is 10.9%.

As for `COc1ccc(OCCN(C)CC(=O)Nc2c(C)cccc2C)cc1.O=C(O)C(=O)O`, the “hERG current change (%, negative = inhibition) at 10uM” value turned out to be 2.96%.

In the case of `CCc1nnc(NC(=O)CN2C(=O)NC3(CC(C)CC(C)(C)C3)C2=O)s1` (stereo not drawn), the “hERG current change (%, negative = inhibition) at 10uM” value was found to be 7.29%.

In the case of `CCc1ccc2nc(N(CCCN(C)C)C(=O)c3ccc(S(=O)(=O)N4CCCc5ccccc54)cc3)sc2c1.Cl`, the “hERG current change (%, negative = inhibition) at 10uM” value is recorded as 7.81%.

`CC(=O)NCCc1nc(-c2ccc(Cl)cc2)no1`: the “hERG current change (%, negative = inhibition) at 10uM” value amounted to 10.8%.

Turning to `O=C(COC(=O)c1c2ccccc2cc2ccccc12)Nc1ncc(C(F)(F)F)cc1Cl`, the “hERG current change (%, negative = inhibition) at 10uM” value was 6.05%.

Turning to `COc1ccc(-c2nc(C)ncc2-c2ccc(Cl)cc2)c(O)c1`, the “hERG current change (%, negative = inhibition) at 10uM” value stood at 0.00268%.

Regarding `COCc1c(C(=O)OCC(=O)N2c3ccccc3CC2C)oc2ccccc12` (stereo not drawn), the “hERG current change (%, negative = inhibition) at 10uM” value was found to be 4.17%.

For the compound `Cc1cc(=O)oc2cc(OCC(=O)N3CCN(C(C)c4ccccc4)CC3)c(Cl)cc12` (stereo not drawn), the “hERG current change (%, negative = inhibition) at 10uM” value is recorded as -35.1%.

Take `O=C(NCCCCc1ccccc1)c1ccc(F)cc1`: the “hERG current change (%, negative = inhibition) at 10uM” value is listed as -8.4%.

`C/C(=N/NC(=O)c1ccc(Br)o1)C(C)C`: the “hERG current change (%, negative = inhibition) at 10uM” value is given as -1.43%.

For the compound `COc1ccc(C/C(=N\O)c2ccc(OC)cc2)cc1`, the “hERG current change (%, negative = inhibition) at 10uM” value is recorded as 1.9%.

As to `CN(CC(=O)Nc1ccccc1C(F)(F)F)C(=O)CN1C(=O)C2CCCCC2C1=O` (stereo not drawn), the “hERG current change (%, negative = inhibition) at 10uM” value is on record as 9.26%.

Consider `CCOC(=O)c1c(C)n(C)c2ccc(OC)c(NC(=O)CN3CCC4(CC3)OCCO4)c12`, for which the “hERG current change (%, negative = inhibition) at 10uM” value is -1.29%.

Regarding `S=C(NCc1cccs1)Nc1ccc(Br)cc1Cl`, the “hERG current change (%, negative = inhibition) at 10uM” value was -2.53%.

Regarding `O=C(c1cc(-c2ccncc2)nc2ccc(Cl)cc12)N1CCN(C(=O)C2CCCO2)CC1` (stereo not drawn), the “hERG current change (%, negative = inhibition) at 10uM” value is given as -9.46%.

In the case of `CCCCC(=O)Nc1nnc(C2=COCCO2)o1`, the “hERG current change (%, negative = inhibition) at 10uM” value was found to be 17.3%.

Turning to `CCOC(=O)CC(=O)CSc1nc2ccc(OC)cc2cc1C`, the “hERG current change (%, negative = inhibition) at 10uM” value is 29.7%.

On to `O=C1SC(SCc2ccccc2Cl)=N/C1=C\c1ccc(C(=O)O)cc1`, for which the “hERG current change (%, negative = inhibition) at 10uM” value is on record as 6.42%.

Regarding `CCOc1ccc(/C=C/C(=O)N(CC)CC(=O)NCc2cccs2)cc1OC`, the “hERG current change (%, negative = inhibition) at 10uM” value is listed as -28.3%.

On to `NC(=S)Nc1ccc(Cl)cc1Cl`, for which the “hERG current change (%, negative = inhibition) at 10uM” value is 14%.

For the compound `CS(=O)(=O)c1ccc(Cl)c(NC(=O)CCl)c1`, the “hERG current change (%, negative = inhibition) at 10uM” value was found to be 33.7%.

As to `OC(CN1CC=C(c2ccccc2)CC1)c1ccccc1` (stereo not drawn), the “hERG current change (%, negative = inhibition) at 10uM” value was -33%.

On to `O=S(=O)(NCCN1CCOCC1)c1cc(Cl)ccc1Cl`, for which the “hERG current change (%, negative = inhibition) at 10uM” value is given as 3.34%.

`Cc1nc(-c2cccnc2)sc1C(=O)N/N=C/c1ccccc1Cl`: the “hERG current change (%, negative = inhibition) at 10uM” value is -75.5%.

As to `O=C(CCS(=O)(=O)c1ccccc1)Nc1ccc2c(c1)OCO2`, the “hERG current change (%, negative = inhibition) at 10uM” value came to 4.28%.

Take `CC1Cc2ccccc2N1C(=O)CSc1nnnn1C1CCCC1` (stereo not drawn): the “hERG current change (%, negative = inhibition) at 10uM” value is on record as -8.36%.

Take `CN1CCN(c2ccc(NC(=O)CSc3ccccc3)cc2F)CC1`: the “hERG current change (%, negative = inhibition) at 10uM” value is given as -68.4%.

Take `Cc1cc(N2CCN(c3ccccc3)CC2)n2c(n1)nc1ccccc12`: the “hERG current change (%, negative = inhibition) at 10uM” value is -68.7%.

As to `O=C(COC(=O)CCc1ccccc1)NC12CC3CC(CC(C3)C1)C2`, the “hERG current change (%, negative = inhibition) at 10uM” value is listed as 6.43%.

Turning to `COc1ccc(NS(=O)(=O)c2ccc3c(c2)OCCO3)cc1OC`, the “hERG current change (%, negative = inhibition) at 10uM” value stood at 19.3%.

On to `CCCCn1c(SCc2c(C)noc2C)nc2cc(S(N)(=O)=O)ccc21`, for which the “hERG current change (%, negative = inhibition) at 10uM” value is on record as -43.1%.

With `O=C(Nc1nnc(C2=COCCO2)o1)c1ccc(S(=O)(=O)N2CCOCC2)cc1`, the “hERG current change (%, negative = inhibition) at 10uM” value is listed as 24.3%.

With `Cc1cc(Br)ccc1OCC(=O)NNC(=O)c1cnccn1`, the “hERG current change (%, negative = inhibition) at 10uM” value turned out to be 14.1%.

For `CC1CCSP(=O)(Oc2ccccc2)O1` (stereo not drawn), the “hERG current change (%, negative = inhibition) at 10uM” value is given as 0.524%.

For the compound `Cc1nc2sc(C(c3cccc(F)c3)N3CCC(O)CC3)c(O)n2n1` (stereo not drawn), the “hERG current change (%, negative = inhibition) at 10uM” value is recorded as -2.49%.

With `COC(=O)C(NC(=O)c1ccccc1Cl)(Nc1ncc(S(=O)(=O)c2ccc([N+](=O)[O-])cc2)s1)C(F)(F)F` (stereo not drawn), the “hERG current change (%, negative = inhibition) at 10uM” value is -32.8%.

Take `Cc1cc(C)cc(NS(=O)(=O)c2ccc3[nH]cc(C(=O)NCc4ccco4)c(=O)c3c2)c1`: the “hERG current change (%, negative = inhibition) at 10uM” value is given as -16.6%.

For `CCNC(=S)Nc1cc2oc3ccccc3c2cc1OC`, the “hERG current change (%, negative = inhibition) at 10uM” value amounted to 10.7%.

Turning to `COc1ccccc1NC(=O)C/C(N)=N/O`, the “hERG current change (%, negative = inhibition) at 10uM” value worked out at 2.67%.

`CCOCCCNC(=O)Cn1cnc2c(cnn2-c2ccc(F)cc2)c1=O`: the “hERG current change (%, negative = inhibition) at 10uM” value was -5.6%.

Regarding `COc1cc(S(=O)(=O)n2ccc(C)n2)c(OC)cc1Cl`, the “hERG current change (%, negative = inhibition) at 10uM” value is on record as -8.65%.

In the case of `CCN(CC)C(=O)c1sc(NC(=O)C(Sc2ccccc2)c2ccccc2)c(C(=O)OC(C)C)c1C` (stereo not drawn), the “hERG current change (%, negative = inhibition) at 10uM” value is 15.9%.

In the case of `COc1ccc(C)cc1S(=O)(=O)N1CCN(C(=O)c2ncoc2-c2cccc(C)c2)CC1`, the “hERG current change (%, negative = inhibition) at 10uM” value is -25.1%.

`Cc1cc2c(cc1C)C(c1ccccc1Br)CC(=O)N2` (stereo not drawn): the “hERG current change (%, negative = inhibition) at 10uM” value stood at 19.6%.

With `CS(=O)(=O)N1CCC(Oc2ccccc2C(=O)NC(C2CC2)C2CC2)CC1`, the “hERG current change (%, negative = inhibition) at 10uM” value was -37.1%.

Take `COc1ccc(C(CNC(=O)c2cc3ccccc3o2)N2CCCC2)cc1` (stereo not drawn): the “hERG current change (%, negative = inhibition) at 10uM” value is recorded as -38.6%.

Consider `COc1ccc(C(=O)C2CCCN(Cc3cccn3-c3ccccn3)C2)cc1F` (stereo not drawn), for which the “hERG current change (%, negative = inhibition) at 10uM” value was -78.5%.

With `N#Cc1c(NC(=O)c2ccco2)sc2c1CCC2`, the “hERG current change (%, negative = inhibition) at 10uM” value is on record as -1.6%.

For the compound `Fc1ccc(C2CCCN2Cc2nc(Cc3ccccc3)no2)cc1` (stereo not drawn), the “hERG current change (%, negative = inhibition) at 10uM” value was -15.2%.

For `O=C(Oc1c(-c2ccccc2)oc2ccccc2c1=O)c1ccccc1`, the “hERG current change (%, negative = inhibition) at 10uM” value is -2.91%.

As for `O=C(COC(=O)C1C2CC3OC(=O)C1C3C2)Nc1cccc(Cl)c1` (stereo not drawn), the “hERG current change (%, negative = inhibition) at 10uM” value is -15.4%.

As to `Cc1ccc(CN(C(=O)c2csnn2)C(C(=O)NC2CCCC2)c2ccco2)cc1` (stereo not drawn), the “hERG current change (%, negative = inhibition) at 10uM” value is given as -28.3%.
